Measurements from the supplement of paper PMC4967469.

Legend:
Test in all cases: Viability of human cancer cell lines after 72 h of drug (GDSC screen)
[1] = compound: CC1=C(/C=C/C(C)=C/C=C/C(C)=C/C(=O)O)C(C)(C)CCC1 [Tretinoin]; details: top dose 10 µM; top dose inferred
Experimental: (§1)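 Human cancer cell lines in 384-well plates, medium with 10% serum, drug for 72 h over a 256-fold dose range (nine 2-fold or five 4-fold steps up to the top dose). Adherent lines were fixed and stained with the nucleic acid dye Syto60, suspension lines read with resazurin; signal relative to control wells, capped at 0 and 100%. One two-parameter sigmoid per drug and line, fitted in a mixed model over all curves with the slope shared within a line.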

[2] = compound: CCn1c(-c2nonc2N)nc2c(C#CC(C)(C)O)ncc(OC[C@H]3CCCNC3)c21 [GSK690693]; details: top dose 10.24 µM; top dose inferred
Experimental: as §1

[3] = compound: COc1cc2c(NC3CCN(C(C)C)CC3)nc(C3CCCCC3)nc2cc1OCCCN1CCCC1 [UNC0638]
Experimental: as §1

[4] = compound: COc1ccc(N(C(=O)Oc2c(C)cccc2C)c2ccnc(Nc3ccc(N4CCN(C)CC4)cc3)n2)c(OC)c1 [WH-4-023]; details: top dose 5.12 µM; top dose inferred
Experimental: as §1

[5] = compound: Cc1cccc(-c2[nH]c(C(C)(C)C)nc2-c2ccc3c(c2)OCO3)n1 [SB-505124]; details: top dose 10 µM; top dose inferred
Experimental: as §1

[6] = compound: O=C(NCCCNc1nc(Nc2cccc(NC(=O)N3CCCC3)c2)ncc1I)c1cccs1 [BX-795]; details: top dose 5 µM; top dose inferred
Experimental: as §1

[7] = compound: Oc1cccc(-c2nc(N3CCOCC3)c3oc4ncccc4c3n2)c1 [PI-103]; details: top dose 10.24 µM
Experimental: as §1

[8] = top dose 20 µM, screen: GDSC drug entry 1236, top dose inferred
[9] = top dose 40 µM, screen: GDSC drug entry 245

Row | Cell Line | AUC [1] | pIC50 [1] | AUC [2] | pIC50 [2] | AUC [3, 8] | pIC50 [3, 8] | AUC [3, 9] | pIC50 [3, 9] | AUC [4] | pIC50 [4] | AUC [5] | pIC50 [5] | AUC [6] | pIC50 [6] | AUC [7] | pIC50 [7]
1 | NALM-6 (B-cell leukaemia, suspension) | 0.978 | < 5.00 | 0.25 | 6.85 | 0.776 | 5.17 | 0.42 | 5.80 | 0.902 | 5.32 | 0.974 | < 5.00 | 0.588 | 6.28 |  | 
2 | NB17 (neuroblastoma, adherent) | 0.973 | < 5.00 | 0.801 | 5.23 |  |  | 0.724 | 4.92 | 0.818 | 5.46 |  |  | 0.865 | < 5.30 | 0.446 | 6.35
3 | NB69 (neuroblastoma, adherent) | 0.976 | < 5.00 | 0.981 | < 4.99 | 0.809 | 5.05 | 0.931 | < 4.40 | 0.963 | < 5.29 |  |  | 0.709 | 5.95 | 0.596 | 5.94
4 | NCI-H1417 (small cell lung carcinoma, suspension) | 0.89 | < 5.00 | 0.943 | < 4.99 | 0.477 | 5.97 | 0.632 | 5.21 | 0.97 | < 5.29 | 0.905 | < 5.00 | 0.809 | 5.49 |  | 
5 | NCI-H1581 (large cell lung carcinoma, semi-adherent) | 0.99 | < 5.00 | 0.987 | < 4.99 | 0.981 | < 4.70 | 0.863 | 4.52 | 0.873 | 5.37 | 0.968 | < 5.00 |  |  | 0.644 | 5.81
6 | NCI-H1666 (lung adenocarcinoma, semi-adherent) | 0.943 | < 5.00 | 0.972 | < 4.99 | 0.723 | 5.24 | 0.777 | 4.75 | 0.985 | < 5.29 | 0.985 | < 5.00 |  |  | 0.932 | < 4.99
7 | NCI-H1963 (small cell lung carcinoma, suspension) | 0.991 | < 5.00 |  |  |  |  | 0.74 | 4.97 | 0.984 | < 5.29 |  |  |  |  |  | 
8 | NTERA-2 cl.D1 (testis, adherent) | 0.924 | < 5.00 | 0.982 | < 4.99 | 0.687 | 5.38 | 0.666 | 5.14 | 0.509 | 6.47 | 0.975 | < 5.00 |  |  | 0.682 | 5.69
9 | PL-21 (acute myeloid leukaemia, suspension) | 0.855 | < 5.00 | 0.592 | 5.92 | 0.786 | 4.99 | 0.694 | 5.01 | 0.982 | < 5.29 | 0.96 | < 5.00 |  |  | 0.133 | > 7.40
10 | RL95-2 (endometrium, adherent) | 0.802 | 5.31 | 0.974 | < 4.99 | 0.946 | < 4.70 | 0.846 | 4.54 | 0.661 | 6.05 | 0.971 | < 5.00 |  |  | 0.964 | < 4.99
11 | SCC-15 (head and neck, adherent) |  |  | 0.961 | < 4.99 | 0.852 | < 4.70 | 0.834 | 4.40 | 0.801 | 5.45 | 0.909 | < 5.00 | 0.792 | 5.50 | 0.868 | < 4.99
12 | SK-N-DZ (neuroblastoma, adherent) | 0.946 | < 5.00 | 0.988 | < 4.99 | 0.873 | 4.72 | 0.937 | < 4.40 | 0.908 | < 5.29 | 0.987 | < 5.00 |  |  | 0.96 | < 4.99
13 | SU-DHL-8 (B-cell lymphoma, suspension) |  |  | 0.821 | 5.27 | 0.806 | 5.03 | 0.656 | 5.18 | 0.959 | < 5.29 | 0.981 | < 5.00 | 0.98 | < 5.30 | 0.17 | 7.15
14 | SW982 (soft tissue, adherent) | 0.977 | < 5.00 | 0.976 | < 4.99 | 0.807 | 4.97 | 0.796 | 4.71 | 0.621 | 6.16 | 0.922 | < 5.00 | 0.677 | 6.00 |  | 
15 | TC-71 (Ewing sarcoma, adherent) |  |  | 0.975 | < 4.99 | 0.825 | 5.03 | 0.927 | < 4.40 | 0.992 | < 5.29 | 0.965 | < 5.00 | 0.787 | 5.75 | 0.478 | 6.25
16 | TE-10 (oesophagus, adherent) |  |  | 0.986 | < 4.99 | 0.894 | < 4.70 | 0.936 | < 4.40 | 0.824 | 5.53 | 0.967 | < 5.00 | 0.927 | < 5.30 | 0.845 | 5.14
17 | THP-1 (acute myeloid leukaemia, suspension) |  |  | 0.826 | 5.27 | 0.826 | 4.98 | 0.56 | 5.45 | 0.983 | < 5.29 | 0.985 | < 5.00 | 0.991 | < 5.30 | 0.541 | 6.09
18 | WSU-DLCL2 (B-cell lymphoma, suspension) | 0.975 | < 5.00 |  |  | 0.018 | > 7.11 | 0.791 | 4.83 | 0.993 | < 5.29 | 0.952 | < 5.00 | 0.805 | 5.69 |  | 
19 | no-10 (glioma, adherent) | 0.979 | < 5.00 | 0.95 | < 4.99 | 0.893 | < 4.70 | 0.871 | < 4.40 | 0.803 | 5.49 | 0.972 | < 5.00 |  |  | 0.71 | 5.54

pIC50: −log10 of the molar value. IC50 is the fitted dose that halves viability relative to control wells, and lower means more sensitive; a limit (>, <) means that the fit lies beyond the doses tested. For AUC the same curve is integrated over the 256-fold range of doses and scaled to a fraction; it is 1 without any effect and falls as sensitivity rises. For some assays here: The top dose, if marked as inferred, comes from the curve model; the source does not state it. For some assays here: Drugs with an entry number were screened twice under separate entries, and the two screens often disagree.
